About 340 (0.77%) of roughly 44,000 compounds were called active. Not shown: some 5% with an inconclusive outcome. Calls follow the shape of the dose curve; as a rule, active = well fitted inhibition curve with a large enough effect; inconclusive = small, poorly fitted or top-dose-only effect; inactive = flat fitted curve, though single readings scatter. Some of the results follow.
Test: Acumen qHTS Assay for Inhibitors of the mTORC1 Signaling Pathway in MEF (Tsc2-/-, p53-/-) Cells: Sytravon;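 also: plate controls were DMSO for no effect and rapamycin for full effect; nearly all actives have a fitted effect of over 50% in size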
Conditions: phospho-rpS6 immunofluorescence/PI, 24 h; series mostly up to 38.3 µM; activity change, negative = inhibition: at the top concentration
Method in brief: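 Plate MEFs (Tsc2-/-, p53-/-, empty vector) in DMEM/10% FBS; after 24 h add compound, incubate 24 h at 37 degree Celsius; fix in PFA/TX-100, block, stain phospho-rpS6 and 10 uM PI; scan at 488 nm; report % positive cells.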

SMILES	activity change, negative = inhibition
Cc1cccc(CCNC(=O)CCc2c(C)nc3ncnn3c2C)c1	inactive: 0.185%
CCc1nn(CC(=O)NCc2ccc(OC)c(OC)c2)c(=O)c2cc3sc(C)cc3n12	inactive: -0.394%
Cc1ccccc1C(=O)OCc1cc(=O)n2c(C)csc2n1	inactive: -3.61%
CCOC(=O)c1c(NC(=O)c2cc3nc(-c4ccccc4)cc(C(F)(F)F)n3n2)sc2c1CCC(C)C2 (stereo not drawn)	inactive: -2.88%
CCCNC(=O)c1cnc2sc(N3CCCCCC3)nn2c1=O	inactive: 1.46%
CCOc1ccc(C(=O)Nc2ccccc2OCc2cc(=O)n3ccccc3n2)cc1	inactive: -22.2%
Cc1cc(C(=O)Nc2cccc(F)c2)c2c(C)nn(-c3cccc(Cl)c3C)c2n1	inactive: 5.53%
COc1ccccc1OCCCCn1c(-c2ccc(Cl)cc2)nc2ccccc2c1=O	inactive: 0.178%
COc1ccc(CCNC(=O)c2nc(SCc3ccc(C)cc3)ncc2Cl)cc1OC	inactive: 1.59%
CN(C)c1ccc(C(=O)Nc2cccc(-c3nc4cccnc4s3)c2)cc1	inactive: -4.82%
O=C(Nc1ccc(C(F)(F)F)cc1)C1CCN(c2cnccn2)CC1	inactive: -7.98%
Cc1ccc(CCNC(=O)c2cc(C)nc3c2c(C)nn3-c2ccc(C)cc2)cc1	inactive: 5.29%
COc1cccc(Cn2c(SCC(=O)N(C)c3ccccc3)nc3ccccc32)c1	inactive: 6.52%
COc1cccc2cc(-c3csc(-c4ccc(Cl)cc4)n3)c(=O)oc12	inactive: 0.0187%
CCc1c(C)c2ccc(O)c(CN3CCN(c4ccc(OC)cc4)CC3)c2oc1=O	inactive: 0.17%
Cc1ccccc1CNC(=O)c1ccc(CSc2nc3cccnc3n2Cc2ccccc2)cc1	inactive: -6.42%
COC(=O)c1ccc(Cn2c(SCc3ccccc3)nc3ccncc32)cc1	inactive: -2.45%
Cc1ccc(-c2nc(CS(=O)(=O)CC(=O)NCc3ccc(Cl)cc3)c(C)o2)cc1	inactive: 4.3%
CCc1ccc(-n2c(SCc3ccccc3C)nc3[nH]ncc3c2=O)cc1	inactive: -0.102%
CC(C)c1ccc(NC(=O)CCS(=O)(=O)c2cccc3nonc23)cc1	inactive: 5.12%
CCc1ccc(-n2nc(C)c3c(C(=O)Nc4cc(C)c(Cl)cc4OC)cc(C)nc32)cc1	inactive: 4.82%
CCOc1ccccc1NC(=O)Cn1c(=O)n(-c2ccc(F)cc2)c(=O)c2c3c(sc21)CN(C(C)=O)CC3	inactive: -13%
O=C(CN1CCSc2ccccc21)N1CCCCC1	inactive: -0.647%
Cc1ccc(CCNC(=O)c2ccc(CNS(=O)(=O)c3ccccc3)cc2)cc1	inactive: -7.42%
CC(=O)Nc1ccc(NC(=O)c2cc3sccc3n2Cc2ccc(Cl)cc2)cc1	inactive: -3.12%
CCOC(=O)c1c(NC(=O)/C(C#N)=C/c2ccccc2)sc2c1CCC2	inactive: -2.7%
COc1cc(NC(=O)Cn2cnc3c2c(=O)n(C)c(=O)n3C)c(OC)cc1Cl	inactive: 15.1%

SMILES	activity change, negative = inhibition
Cc1cc(C)cc(NC(=O)Nc2ccccc2OCc2cc(=O)n3ccccc3n2)c1	inactive: 0.211%
CCOc1ccccc1NC(=O)c1c(NCc2cccs2)sc2c1CCCCC2	inactive: 4.1%
CCOc1cc(/C=C(\C#N)C(=O)Nc2ccc(C)cc2)ccc1OCc1cc(=O)n2nc(CC)sc2n1	inactive: 3.22%
CCOc1ccc(NC(=O)c2c(NC(=O)c3ccccc3F)sc3c2CCC3)cc1	inactive: -3.69%
CCC(=O)N1CCc2cc(CNS(=O)(=O)c3ccc(NC(=O)CC(C)C)cc3)ccc21	inactive: -17.2%
CCc1c(C)sc2c1CCN(C(=O)Nc1cc(Cl)c(OC)cc1OC)C2c1ccccc1 (stereo not drawn)	inactive: 0%
C#CCn1cnc2c(cnn2-c2ccc(F)cc2)c1=O	inactive: 0.128%
CCC(=O)N1CCc2cc(Br)cc(S(=O)(=O)CCC(=O)Nc3ccc(C)c(F)c3)c21	inactive: 1.37%
COc1ccc2c(c1)CC(C(=O)NCCCN1CCN(c3ccccc3F)CC1)CO2 (stereo not drawn)	inactive: 1.52%
CCn1c(C)c(C)c2cc(C(=O)NCc3ccc(OC)cc3OC)ccc21	inactive: 4.79%
CCN(CC)S(=O)(=O)c1ccc(NC(=O)c2c(C)oc3ncnc(N4CCOCC4)c23)cc1	inactive: 7.22%
Cc1ccc(-c2nnc(Nc3ccc(OCC(N)=O)cc3)c3ccccc23)cc1S(=O)(=O)N(C)C	inactive: 1.51%
CC(C)(C)c1ccc(C2=NC(C)(C)N(CC(=O)Nc3ccc(F)c(F)c3)C2=O)cc1	inactive: 0.569%
COc1ccc(-c2onc(C)c2C)cc1S(=O)(=O)N1CCN(c2ccc(Cl)cc2)CC1	inactive: -9.51%
CC(C)OC(=O)c1c(NC(=O)COc2cccc(Br)c2)sc2c1CCCC2	inactive: 15.2%
O=C(CSc1nc2c([nH]c3ccccc32)c(=O)n1-c1ccccc1)N1CCOCC1	inactive: -6.41%
CC(CNC(=O)C1CCN(S(=O)(=O)c2ccc3c(ccn3C)c2)CC1)c1ccccc1 (stereo not drawn)	inactive: -7.78%
CCN(CC)CCn1c(-c2ccccc2)csc1=Nc1ccccc1	inactive: -0.648%
Nc1nonc1C(=O)NCCNCc1cccc(Cl)c1Cl	inactive: -20.2%
CCCCN(CC)CCCNC(=O)C1CCCN(c2ncnc3c2nc2n3CCCCC2)C1 (stereo not drawn)	inactive: -0.819%
Cc1ccc(OCCn2c(-c3ccc(Br)cc3)nc3ccccc3c2=O)cc1C	inactive: -0.758%
Cc1c(CC(=O)NCCc2ccccc2F)c(=O)oc2cc(O)c(Cl)cc12	inactive: -2.44%
O=C(COc1ccccc1[N+](=O)[O-])N1CCC(c2nc3ccccc3o2)CC1	inactive: 2.34%
Cc1ccc(-n2ncc3c(N(CC(C)C)CC(C)C)ncnc32)c(C)c1	inactive: -9.29%
Cc1ccc(CCNC(=O)c2c(C)oc3nc(C)nc(N4CCOCC4)c23)cc1	inactive: -1.07%
CCN(CCCNC(=O)c1cc(Nc2ccc(OC)cc2OC)nc2ccccc12)c1cccc(C)c1	inactive: 2.32%
